Experimental data reported in PubChem BioAssay AID445 (National Center for Advancing Translational Sciences (NCATS), 2006).
The whole screen tested about 110,000 compounds, of which about 40 (0.04%) were called active. Inconclusive means that the source gave no clear call. Such entries were picked first, then a sample of the others. Calls come from the whole dose curve; as a rule, active = well fitted curve in the direction sought with a large enough effect in the signal ratio (not every such curve was filed as active); inconclusive = small, poorly fitted or top-dose-only effect, or a change in a side signal; inactive = flat fitted curve, though single readings scatter; the % refers to the signal ratio. Potencies of inconclusive entries are doubtful fits and often do not repeat.
Potency is the fitted concentration of half-maximal effect.

Assay: IkB Signaling;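 for IkBa stabilization activation: 0% = basal untreated cells and 100% = reference inhibitor full response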
Details: ABC-DLBCL IkBa-CBG/CBR dual luciferase ratio (green luciferase fused to IkBa over red control in OCI-Ly3 lymphoma cells), 4 h; IkBa stabilization activation: at 57.1 µM (top of the series), scaled: untreated 0%, proteasome inhibitor 100% unless noted
How it was run: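 In this assay, an IκBα–CBG68 fusion accumulates when IKK-driven degradation is blocked; native CBR normalizes for cell number. OCI-Ly3 cells were treated 4 h with compound and doxycycline, then green and red light read after Chroma-Glo addition.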
With `Cc1ccc(Nc2cc(C)nc3nc(Cc4ccc(Cl)cc4)nn23)cc1` the IkBa stabilization activation was inconclusive: -0.176% [signal inhibitor].
With `Cc1ccc(-c2ccc(=O)n(Cc3ccc(F)cc3)n2)cc1` the IkBa stabilization activation was inconclusive: 0.265% [signal inhibitor].
For `COc1cccc(CNC(=O)Cn2c(=O)oc3cc(S(=O)(=O)N4CCCC4)ccc32)c1`, the IkBa stabilization activation was inconclusive: 0.758% [signal inhibitor].
In the case of `COc1ccc(N2CCN(C(=O)COc3ccc4ccccc4c3)CC2)cc1`, the “IkBa stabilization activation” value is reported as inactive: 0.872%.
In the case of `CCCN(CCC)CCCNC(=O)c1cc2c(=O)oc3ccc(C)cc3c2s1`, the “IkBa stabilization activation” value is reported as inactive: -1.28%.
With `Cc1ccc(CN2CCSc3ccc(C(=O)Nc4ccc(Cl)cc4)cc32)cc1` the IkBa stabilization activation was inconclusive: 10.1% [signal inhibitor].
For `CCOc1ccc(CCNC(=O)CCCc2cc(-c3ccc(OCC)cc3)on2)cc1`, the IkBa stabilization activation was inconclusive: 1.4% [signal inhibitor].
With `N#Cc1c(/N=C/c2ccco2)oc(-c2ccccc2)c1-c1ccccc1` the IkBa stabilization activation was inconclusive: 12.3% [signal inhibitor].
With `Fc1ccc(Nc2ncncc2-c2ccccc2C(F)(F)F)cc1` the IkBa stabilization activation was inactive: 24.4% [at 11.4 µM, scaled: untreated 0%, proteasome inhibitor 100%].
For `CCOc1ccc2c(c1)sc(=NC(=O)C1CC1)n2C`, the “IkBa stabilization activation” value was inactive: -1.75%.
With `O=C(CSc1nc(-c2ccc(F)cc2)cc(C(F)(F)F)n1)NCc1ccccc1` the “IkBa stabilization activation” value was inactive: 2.12%.
For `Cc1cc(C(=O)CSc2nnc(-c3ccco3)o2)c(C)n1-c1ccc2c(c1)OCCO2`, the IkBa stabilization activation was inconclusive: 3.75% [signal inhibitor].
For `CCCCNC(=O)CCC(=O)NNc1nc2ccccc2c2nc(-c3ccccc3)nn12`, the “IkBa stabilization activation” value was inactive: 2.52%.
In the case of `CCOC(=O)C1CCN(C(=O)Nc2ccc3nc(-c4ccco4)c(-c4ccco4)nc3c2)CC1`, the “IkBa stabilization activation” value is reported as inactive: 7.47%.
With `CCOc1ccccc1NC(=O)CSc1ncnc2c1oc1ccccc12` the “IkBa stabilization activation” value was inactive: 4.6%.
With `Cc1cccc(C(=O)Nc2c3c(nn2-c2ccc(Cl)cc2)CS(=O)(=O)C3)c1` the IkBa stabilization activation was inconclusive: 1.13% [signal inhibitor].
For `CCOC(=O)c1c(-c2ccccc2)oc2ccc(NS(=O)(=O)c3ccc(OC)cc3)cc12`, the IkBa stabilization activation was inconclusive: 9.21% [signal inhibitor].
With `CC(C)(C)OC(=O)N1CCC(c2c(C(=O)NC3CCN(Cc4ccccc4)CC3)cnn2-c2cccc(F)c2)CC1` the IkBa stabilization activation was inconclusive: -0.184% [signal inhibitor].
With `COc1cc(NC(=O)c2c(-c3ccc(C)cc3)nnc3ccccc23)cc(OC)c1OC` the “IkBa stabilization activation” value was inactive: 0.154%.
With `COc1ccc(S(=O)(=O)Nc2cccc(-c3ccc(N4CCOCC4)nn3)c2)cc1F` the IkBa stabilization activation was inconclusive: 1.51% [signal inhibitor].
With `O=C(Cn1nc(-c2ccccc2)ccc1=O)NCc1ccc(F)cc1Cl` the IkBa stabilization activation was inconclusive: -0.611% [signal inhibitor].
In the case of `C[C@H]1[C@H](C)CC[C@@]2(C(=O)O)CC[C@]3(C)C(=CC[C@H]4[C@@]5(C)C[C@@H](O)[C@H](O)[C@@](C)(CO)[C@@H]5CC[C@@]43C)[C@@H]12`, the IkBa stabilization activation is reported as inactive: -0.821% [at 11.4 µM, scaled: untreated 0%, proteasome inhibitor 100%].
With `COc1ccccc1NC(=O)N(Cc1ccco1)Cc1cc2cc(C)cc(C)c2[nH]c1=O` the IkBa stabilization activation was inconclusive: 12.8% [signal inhibitor].
For `CC(=O)Nc1ccc(NC(=O)CCCc2nc(-c3ccc(C(C)(C)C)cc3)no2)cc1`, the IkBa stabilization activation was inconclusive: 10.3% [signal inhibitor].
With `CC(=O)c1ccc(N2C(=O)N(Cc3cccc(C(F)(F)F)c3)c3ccccc3S2(=O)=O)cc1` the “IkBa stabilization activation” value was inactive: 1.54%.
With `CC1=C(C(=O)OC2CCCC2)C(c2ccc(F)cc2F)CC(=O)N1` (stereo not drawn) the “IkBa stabilization activation” value was inactive: 3.52%.
For `CCOc1cc(C(=O)Nc2ccc3oc(-c4ccc(F)cc4Cl)nc3c2)cc(OCC)c1OCC`, the IkBa stabilization activation was inconclusive: 7.76% [signal inhibitor].
In the case of `COc1ccc(N(Cc2cccs2)C(=O)c2ccccc2C)cc1`, the IkBa stabilization activation is reported as inconclusive: 2.7% [signal inhibitor].
With `Cc1ccc(NC(=O)c2cc(C)nn2-c2ccccc2)cc1` the IkBa stabilization activation was inconclusive: 12.2% [signal inhibitor].
With `O=C(CCCCn1c(=O)c2ccccc2n(Cc2ccc(Cl)cc2)c1=O)NCc1ccccc1Cl` the IkBa stabilization activation was inconclusive: 3.23% [signal inhibitor].
In the case of `Cc1cc(OC(C)C(=O)N(Cc2ccco2)Cc2ccccc2F)cc(C)c1Cl` (stereo not drawn), the IkBa stabilization activation is reported as inconclusive: -1.23% [signal inhibitor].
In the case of `Cc1ccc(CCNC(=O)C2CCN(c3nnc(C)c4c(C)n(-c5ccccc5)nc34)CC2)cc1`, the IkBa stabilization activation is reported as inconclusive: 0.591% [signal inhibitor].
In the case of `COc1ccc(CN(C2CCCC2)S(=O)(=O)c2ccc(-n3cnnn3)cc2)cc1OC`, the IkBa stabilization activation is reported as inconclusive: 2.87% [signal inhibitor].
With `O=C1C2CCCN2C(c2ccccc2F)N1c1ccc(Cl)cc1` (stereo not drawn) the “IkBa stabilization activation” value was inactive: -0.495%.
With `CCOc1cccc2sc(N(Cc3cccnc3)C(=O)C3CCCCC3)nc12` the Potency was inconclusive: 3160 nM [signal inhibitor, full curve, poor fit].
In the case of `Cc1ccc(NC(=O)CSCc2cnn(-c3ccccc3)c2-n2cccc2)c(C)c1`, the IkBa stabilization activation is reported as inconclusive: -0.504% [signal inhibitor].
In the case of `CN(C)c1ncc2ncc(=O)n(C3CC3)c2n1`, the IkBa stabilization activation is reported as inactive: -0.727% [at 11.4 µM, scaled: untreated 0%, proteasome inhibitor 100%].
In the case of `Cc1ccc(NC(=O)CSc2nc3ccccc3c3nc(CCn4cncc4C)nn23)cc1F`, the IkBa stabilization activation is reported as inconclusive: 0.412% [signal inhibitor].
In the case of `Cc1ccc(C)c(N2CCN(CCCNC(=O)C3COc4ccccc4C3)CC2)c1` (stereo not drawn), the IkBa stabilization activation is reported as inconclusive: -1.36% [signal inhibitor].
For `CCOc1ccccc1Nc1nc2ccccc2n2cnnc12`, the “IkBa stabilization activation” value was inactive: 0.324%.
For `CCCS(=O)(=O)c1ncc(Cl)c(C(=O)N2CCN(c3ccc(OC)cc3)CC2)n1`, the IkBa stabilization activation was inconclusive: -5.92% [signal inhibitor].
For `CCN(Cc1ccccc1)Cc1c(O)ccc2c(=O)c(-c3ccccc3OC)c(C(F)(F)F)oc12`, the IkBa stabilization activation was inconclusive: -1.19% [signal inhibitor].
In the case of `Cc1cccc(OCCSc2nc3ccccc3n2CC(=O)N2CCCCC2)c1C`, the IkBa stabilization activation is reported as inconclusive: 1.19% [signal inhibitor].
In the case of `CCOC(=O)c1ccc(N2CCN(c3cc(Cl)ccc3C)CC2)c(NC(=O)Nc2cccc(OC)c2)c1`, the IkBa stabilization activation is reported as inconclusive: 1.88% [signal inhibitor].
With `COc1ccccc1NC(=O)c1oc2ccc(C)cc2c1C` the IkBa stabilization activation was inconclusive: 1.69% [signal inhibitor].
In the case of `CC(=O)Nc1nonc1-c1nnc(SCC(=O)Nc2ccc(F)cc2F)n1-c1ccccc1`, the IkBa stabilization activation is reported as inconclusive: 2.55% [signal inhibitor].
With `Sc1ccc2ccccc2c1CNCc1ccccc1` the IkBa stabilization activation was inactive: 1.96% [at 11.4 µM, scaled: untreated 0%, proteasome inhibitor 100%].
With `O=C1CCC(=O)N1CN(C(=O)c1ccco1)c1ccccc1` the “IkBa stabilization activation” value was inactive: 3.8%.
For `Cc1cccc(S(=O)(=O)Nc2cccc(-c3cn4ccsc4n3)c2)c1`, the IkBa stabilization activation was inconclusive: 0.661% [signal inhibitor].
For `CCc1ccc(-n2c(SC(CC)C(=O)N(CC)CC)nc3n[nH]c(C)c3c2=N)cc1` (stereo not drawn), the IkBa stabilization activation was inconclusive: -0.0752% [signal inhibitor].
With `CCOCCCNC(=O)C1CCCN(Cc2nc(-c3ccc(CC)cc3)oc2C)C1` (stereo not drawn) the IkBa stabilization activation was inconclusive: -0.205% [signal inhibitor].
In the case of `CCn1ccc2cc(S(=O)(=O)N3CCCN(C(=O)Nc4ccccc4OC)CC3)ccc21`, the IkBa stabilization activation is reported as inconclusive: 2.29% [signal inhibitor].
For `CCc1ccc(OCC(=O)N(Cc2cccs2)c2ccc(Cl)cc2)cc1`, the IkBa stabilization activation was inconclusive: 0.524% [signal inhibitor].
For `CC[C@H]1CN(C)[C@H]2Cc3c([nH]c4ccccc34)C(=O)C[C@H]1[C@H]2C(=O)OC`, the IkBa stabilization activation was inactive: -1.46% [at 11.4 µM, scaled: untreated 0%, proteasome inhibitor 100%].
For `O=S(=O)(c1ccc(F)c2ccccc12)N1CCCCC1`, the “IkBa stabilization activation” value was inactive: 0.388%.
For `Cc1ccc(-c2nnc(SCC(=O)O)n2N)cc1`, the “IkBa stabilization activation” value was inactive: 0.496%.
For `CC(C)Sc1nc2c(c(=O)n(C)c(=O)n2C)n1Cc1ccc(Cl)cc1`, the “IkBa stabilization activation” value was inactive: 6.71%.
With `Cc1cc2oc(=O)c(CC(=O)NCCc3ccccc3)c(C)c2c2occ(C(C)(C)C)c12` the IkBa stabilization activation was inconclusive: -1.23% [signal inhibitor].
For `CCCOC(=O)c1c(C)oc2c1cc(NS(=O)(=O)c1ccc(OCC)cc1)c1ccccc12`, the IkBa stabilization activation was inconclusive: 12.8% [signal activator].
For `Cc1cc(C(=O)O)c2c(=O)n(C)c(=O)n(C)c2n1`, the “IkBa stabilization activation” value was inactive: -1.96%.
In the case of `COc1ccc(-c2cn3c(n2)sc2cc(C(=O)NC4CCCc5ccccc54)ccc23)cc1` (stereo not drawn), the IkBa stabilization activation is reported as inconclusive: 4.12% [signal inhibitor].
With `Cc1[nH]c2ccccc2c1-c1nc2ccccc2[nH]1` the Potency was inconclusive: 501 nM [signal inhibitor, partial curve].
For `O=C(Nc1c(F)cc(F)cc1Br)c1cc(-c2ccc(O)cc2)on1`, the IkBa stabilization activation was inconclusive: 18.2% [signal inhibitor].
With `CCN(C(=O)CCc1nc(-c2ccc(C)cc2)no1)c1cc(C)ccc1C` the IkBa stabilization activation was inconclusive: 10.7% [signal inhibitor].
With `CCCCN(C)CCCNC(=O)c1ccc2nc(N3CCCCC3)sc2c1` the “IkBa stabilization activation” value was inactive: -2.1%.
For `Cc1ccc(NC(=O)c2oc3ccccc3c2NC(=O)Cc2cccs2)cc1`, the “IkBa stabilization activation” value was inactive: 0.174%.
With `O=C1c2ccccc2CC[C@H]1CNCCc1ccc(O)cc1` the IkBa stabilization activation was inconclusive: 9% [signal activator].
In the case of `CCc1ccc(NC(=O)CC2C(=O)N(c3cccc(OC)c3)C(=O)N2Cc2ccco2)cc1` (stereo not drawn), the IkBa stabilization activation is reported as inconclusive: 1.35% [signal inhibitor].
